# According to PubChem BioAssay (NCATS):
# “And” between values parts separate entries of the source, which are not always exact repeats. Equal entries are not always repeated. The inconclusive results got no clear call from the source; some entries with a clear call stand among them for comparison. For some assays here: Potencies beside an inconclusive call are fits to weak or partial responses and may not hold up. The source made the active and inactive calls. Unless noted, the call rests on the fitted dose curve; in most records, active means well fitted curve in the direction sought with a large enough effect; inconclusive means small, poorly fitted or top-dose-only effect, or another doubt; inactive means no such curve, though single readings can be large; an effect the other way counts as inactive or inconclusive.
# Legend:
# [1] = NFAT Signaling Pathway (AID 444; active means well fitted curve in either direction with a large enough effect, not every such curve was filed as active; inconclusive means small, poorly fitted or top-dose-only effect, or another doubt;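 further: carbachol stimulus at about its EC50 of 1 µM final; on the % scale 0 is the no-effect control and ±100 the full control effect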); settings: Jurkat NFAT-bla M1, carbachol, beta-lactamase ratio, 5 h
# Procedure, shortened: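 Read-out: CCF4 FRET ratio (460 nm/530 nm) after 1 h RT dye loading, used for %activity and AC50 from titration series. Cells: Jurkat NFAT-β-lactamase/M1 line, treated with compound plus 1 uM carbachol for 5 h, 37 °C.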
# [2] = qHTS Assay for Identification of Small Molecule Agonists for Thrombopoietin (TPO) Signaling Pathway (AID 917); settings: TPO signaling pathway reporter cells, agonist qHTS, stimulated with TPO at its EC50; series mostly up to 38.5 µM; further: potency means the concentration at half of the fitted maximal effect
# Procedure, shortened: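 We measured Glycoprotein IIb promoter–luciferase output in IL-3-starved Ba/F3 murine cells expressing the human TPO receptor after 24 hrs at 37 C with compounds and 26 pM TPO.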
# [3] = target: Muscarinic acetylcholine receptor M1 (Rattus norvegicus) (UniProt P08482); assay: qHTS Assay for Antagonists of Acetylcholine Muscarinic M1 Receptor: Kinetic Measurement of Intracellular Calcium Response (AID 943); settings: M1-expressing cells, kinetic intracellular calcium fluorescence; series mostly up to 35.3 µM; further: potency means the concentration at half of the fitted maximal effect; nearly all actives have a fitted effect of over 75% in size
# Procedure, shortened: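 CHO cells expressing rat M1 receptor, Fluo-4 loaded, preincubated 10 min with compound, then stimulated with EC80 carbachol (100 nM final). Kinetic calcium fluorescence over 4 min; response taken as peak over basal signal.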
# [4] = target: Muscarinic acetylcholine receptor M1 (Rattus norvegicus) (UniProt P08482); assay: qHTS Assay for Antagonists of Acetylcholine Muscarinic M1 Receptor: Measurement of IP-One Response (AID 944); settings: CHO-M1 cells, IP-One HTRF, antagonist mode; series mostly up to 46.1 µM; further: potency means the concentration at half of the fitted maximal effect; nearly all actives have a fitted effect of over 75% in size
# [5] = qHTS Assay for Lipid Storage Modulators (AID 1519; calls by dose curve; further: on the % scale 0 is the no-effect control and ±100 the full control effect); settings: Drosophila S3 cells, BODIPY lipid droplet/cell ratio, laser cytometry, cells loaded with oleic acid; activity change, negative = inhibition: at 57.5 µM (top of the series) unless noted
# Procedure, shortened: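 Cells seeded at 5,000 per well were treated with compounds over a concentration series and loaded with oleic acid (400 uM, as added). Lipid droplet fluorescence (488 nm excitation, 500-530 nm channel) was read by laser-scanning cytometry and normalized to 20 uM Triacsin C.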
# [6] = target: Ferritin light chain (Equus caballus) (UniProt P02791); assay: qHTS Validation Assay for Identification of Novel General Anesthetics (AID 2323); settings: horse apoferritin, anesthetic-site fluorescent probe displacement; series mostly up to 76.9 µM; further: potency means the concentration at half of the fitted maximal effect; on activity change, negative = inhibition: on the % scale 0 is the no-effect control and ±100 the full control effect
# Procedure, shortened: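 Apoferritin from horse spleen (10 uM) was mixed with 1-aminoanthracene at 50% saturation in PBS, then compounds were added. After 10 min at room temperature, fluorescence was read (ex 380 nm, em 535 nm) and normalized to free-probe and complex controls.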
# [7] = Quantitative high throughput screen for delayed death inhibitors of the malarial parasite plastid, 48 hour incubation (AID 488752); settings: Plasmodium falciparum growth; series mostly up to 28.7 µM; further: potency means the concentration at half of the fitted maximal effect; nearly all actives have a fitted effect of over 65% in size
# Procedure, shortened: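 Erythrocytes infected with firefly luciferase-expressing P. falciparum (2% hematocrit, 0.1% parasitemia) cultured with compound for 48 h at 37 C, 5% CO2, in RPMI 1640/0.5% Albumax. Growth inhibition read as loss of luminescence.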
# [8] = target: Ubiquitin carboxyl-terminal hydrolase 1 (Homo sapiens) (UniProt O94782); assay: Inhibitors of USP1/UAF1: Pilot qHTS (AID 504865); settings: purified USP1/UAF1, Ub-rhodamine cleavage fluorescence; series mostly up to 114 µM;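 further: rhodamine fluorescence freed from ubiquitin-rhodamine substrate followed over time; potency means the concentration at half of the fitted maximal effect; nearly all actives have a fitted effect of over 35% in size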
# Procedure, shortened: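 Kinetic fluorescence assay: 1nM USP1/UAF1, 15 min compound preincubation, then 150nM Ub-Rho; 480/540 nm.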
# [9] = qHTS Assay for Identifying Gametocytocidal Compounds (AID 743244); further: potency means the concentration at half of the fitted maximal effect;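 on max response: on the % scale 0 is the no-effect control and ±100 the full control effect; actives lower the fluorescent signal which means gametocytes are killed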; settings: P. falciparum 3D7 stage III-V gametocytes, alamarBlue, 72 h; max response: active compounds read low
# Procedure, shortened: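 Late gametocytes (III–V), P. falciparum 3D7; 72 h drug, then 24 h alamarBlue; resazurin reduction read by fluorescence.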
# [10] = qHTS for differential inhibitors of proliferation of Plasmodium falciparum line 7G8 (AID 1815); settings: Plasmodium falciparum 7G8 proliferation inhibition; series mostly up to 28.7 µM;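 further: parasite growth measured after three days of incubation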; further: potency means the concentration at half of the fitted maximal effect;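 on activity change, negative = inhibition: plate controls were vehicle wells for no effect and reference inhibitor wells for full effect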
# [11] = qHTS for differential inhibitors of proliferation of Plasmodium falciparum line HB3 (AID 1886); settings: Potency: Plasmodium falciparum HB3 proliferation inhibition; series mostly up to 28.7 µM;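 further: parasites grown with compound for 72 h before SYBR Green readout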; further: potency means the concentration at half of the fitted maximal effect;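 on activity change, negative = inhibition: plate controls were vehicle for no effect and reference inhibitor for full effect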
# [12] = Cytometry Cell-Based qHTS for Inhibitors of the mTORC1 Signaling Pathway in MEF cells (AID 2668); settings: mTORC1 pathway readout; series mostly up to 38.3 µM; further: potency means the concentration at half of the fitted maximal effect;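 on activity change, negative = inhibition: Tsc2-/- p53-/- mouse embryonic fibroblasts stably re-expressing wild-type Tsc2; percent cells positive for phospho-rpS6 Ser235/236 relative to propidium iodide stain; plate controls were DMSO wells for no effect and 7.5 nM rapamycin control wells for full effect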
# Procedure, shortened: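 Pathway inhibition in WT Tsc2-rescued Tsc2-/-, p53-/- MEFs is measured as the Alexa-488 phospho-rpS6 to propidium iodide intensity ratio after 24 hrs of compound at 37 degree Celsius. PI-stained cell number gives viability.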
# [13] = target: Glutaminase kidney isoform, mitochondrial (Homo sapiens) (UniProt O94925); assay: qHTS for Inhibitors of Glutaminase (GLS): LOPAC Validation (AID 624146); settings: glutaminase enzyme activity inhibition; series mostly up to 46.1 µM; further: potency means the concentration at half of the fitted maximal effect; nearly all actives have a fitted effect of over 60% in size
# Procedure, shortened: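 Glutamate formation by hKGA was monitored fluorometrically using coupled glutamate oxidase, HRP and Amplex Red. Substrate was added as 1 mM L-glutamine solution; incubation was 30 min at RT after an initial read.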
# [14] = target: Atrial natriuretic peptide receptor 2 (Homo sapiens) (UniProt P20594); assay: Natriuretic polypeptide receptor (hNpr2) antagonism - Pilot subtype selectivity assay (AID 1347050; calls by dose curve; further: potency means the concentration at half of the fitted maximal effect; on activity change, negative = inhibition: on the % scale 0 is the no-effect control and ±100 the full control effect); settings: NPR2-expressing cells, cGMP antagonist-mode read-out; series mostly up to 38.3 µM
# Procedure, shortened: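 Pilot selectivity screen against hNpr2: HEK293 cGMP-sensor cells are treated with LOPAC1280 compounds, then with hNppC peptide at 1 nM final. The cGMP-driven luminescence change over 20 min at room temperature is the read-out.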
# [15] = qHTS for differential inhibitors of proliferation of Plasmodium falciparum line W2 (AID 1883); settings: Potency: Plasmodium falciparum W2 proliferation inhibition; series mostly up to 28.7 µM;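 further: parasites grown with compound for 72 h before lysis and staining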; further: potency means the concentration at half of the fitted maximal effect;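 on activity change, negative = inhibition: 0% = vehicle wells and -100% = control inhibitor wells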
# [16] = target: D(1A) dopamine receptor (Homo sapiens) (UniProt P21728); assay: HTS Assay for Allosteric Agonists of the Human D1 Dopamine Receptor: Primary Screen for Antagonists (AID 488983); settings: D1 receptor cell assay, antagonist mode, qHTS titration; activity change, negative = inhibition: at 41.8 µM (top of the series);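 further: calcium flux response to an EC80 dopamine challenge measured with no-wash dye; potency means the concentration at half of the fitted maximal effect; nearly all actives have a fitted effect of over 65% in size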
# Procedure, shortened: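 Tetracycline-induced HEK293 T-REx D1 line, force-coupled to calcium flux, read with no-wash calcium dye. Compound added after 10 s baseline, read 180 s for agonism, then EC80 dopamine added and read a further 180 s.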
# [17] = Validation screen for small molecules that induce genotoxicity in human embryonic kidney (HEK293T) cells expressing luciferase-tagged ELG1 (AID 493106); settings: luminescence; series mostly up to 46.1 µM; further: potency means the concentration at half of the fitted maximal effect
# Procedure, shortened: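 HEK293T cells expressing luciferase-tagged ELG1, 2,000 cells/well, exposed to compound 16 hr at 37 °C, 5% CO2. Luciferase read after ONE-Glo, 30 min at room temperature; increased signal indicates genetic stress.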
# [18] = target: Mitogen-activated protein kinase 10 (Mus musculus) (UniProt Q61831); assay: JNK3 AlphaScreen Assay (AID 530; active means well fitted curve in either direction with a large enough effect, not every such curve was filed as active; inconclusive means small, poorly fitted or top-dose-only effect, or another doubt;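 further: kinase came from lysate of stimulated human HepG2 cells; signal reports phosphorylation of biotinylated GST-cJun 1-79 at Ser73 with 10 µM ATP; potency means the concentration at half of the fitted maximal effect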); settings: JNK3 lysate, c-Jun phosphorylation; activity change, negative = inhibition: at 57.1 µM (top of the series)
# Procedure, shortened: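 Compound titrations were preincubated 15 minutes at room temperature with substrate, antibody and pre-activated JNK3-containing HepG2 lysate. Reactions were started with 10 uM ATP and stopped with EDTA-containing bead buffer for AlphaScreen detection.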
# [19] = qHTS for differential inhibitors of proliferation of Plasmodium falciparum line Dd2 (AID 1882); settings: Potency: Plasmodium falciparum Dd2 proliferation inhibition; series mostly up to 28.7 µM; further: potency means the concentration at half of the fitted maximal effect; nearly all actives have a fitted effect of over 65% in size
# Procedure, shortened: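 Dd2-infected erythrocytes (0.3% parasitemia, 2.5% hematocrit final) incubated with compound 72 h at 37 C, 5% CO2; lysed with saponin/Triton buffer containing SYBR Green I, incubated overnight in the dark, then read by fluorescence (485/535 nm). Normalized to 0.29 uM artemisinin and DMSO.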
# Tags describe the fitted curve by direction and shape.
# Chain of UniProt P20594 (P20594 whole entry, looked up): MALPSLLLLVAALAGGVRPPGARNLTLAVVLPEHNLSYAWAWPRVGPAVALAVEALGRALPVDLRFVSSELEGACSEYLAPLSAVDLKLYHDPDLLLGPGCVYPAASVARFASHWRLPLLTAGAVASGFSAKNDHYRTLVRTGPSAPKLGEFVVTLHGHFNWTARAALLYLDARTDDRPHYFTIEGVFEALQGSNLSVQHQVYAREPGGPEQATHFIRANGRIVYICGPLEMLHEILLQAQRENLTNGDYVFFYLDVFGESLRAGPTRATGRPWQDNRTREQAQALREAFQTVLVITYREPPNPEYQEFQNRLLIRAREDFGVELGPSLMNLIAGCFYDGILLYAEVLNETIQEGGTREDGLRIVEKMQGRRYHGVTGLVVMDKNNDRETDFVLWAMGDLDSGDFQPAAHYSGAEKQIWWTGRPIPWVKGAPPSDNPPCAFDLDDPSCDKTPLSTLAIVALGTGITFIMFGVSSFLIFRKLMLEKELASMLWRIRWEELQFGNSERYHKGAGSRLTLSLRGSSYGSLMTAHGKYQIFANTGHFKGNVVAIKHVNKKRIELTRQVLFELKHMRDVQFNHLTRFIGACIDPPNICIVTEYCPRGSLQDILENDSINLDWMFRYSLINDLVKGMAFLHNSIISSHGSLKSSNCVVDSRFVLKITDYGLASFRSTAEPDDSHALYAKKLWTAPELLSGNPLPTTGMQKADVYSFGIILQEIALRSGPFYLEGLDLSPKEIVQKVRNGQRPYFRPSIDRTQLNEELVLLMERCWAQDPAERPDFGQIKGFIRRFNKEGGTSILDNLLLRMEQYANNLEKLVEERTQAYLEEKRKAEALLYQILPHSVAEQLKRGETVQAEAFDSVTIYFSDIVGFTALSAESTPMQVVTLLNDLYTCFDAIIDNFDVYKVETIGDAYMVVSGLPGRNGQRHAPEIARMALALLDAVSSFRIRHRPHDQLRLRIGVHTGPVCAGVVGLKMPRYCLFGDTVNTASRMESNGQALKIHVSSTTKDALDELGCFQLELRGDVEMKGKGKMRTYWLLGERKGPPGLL
# Chain of UniProt P02791 (P02791 whole entry, looked up): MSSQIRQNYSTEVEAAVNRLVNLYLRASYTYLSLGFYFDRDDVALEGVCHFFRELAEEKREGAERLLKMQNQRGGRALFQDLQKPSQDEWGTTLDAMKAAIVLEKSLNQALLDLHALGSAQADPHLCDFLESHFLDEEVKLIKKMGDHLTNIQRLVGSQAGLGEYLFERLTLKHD
# Chain of UniProt O94925 (O94925 whole entry, looked up, canonical isoform): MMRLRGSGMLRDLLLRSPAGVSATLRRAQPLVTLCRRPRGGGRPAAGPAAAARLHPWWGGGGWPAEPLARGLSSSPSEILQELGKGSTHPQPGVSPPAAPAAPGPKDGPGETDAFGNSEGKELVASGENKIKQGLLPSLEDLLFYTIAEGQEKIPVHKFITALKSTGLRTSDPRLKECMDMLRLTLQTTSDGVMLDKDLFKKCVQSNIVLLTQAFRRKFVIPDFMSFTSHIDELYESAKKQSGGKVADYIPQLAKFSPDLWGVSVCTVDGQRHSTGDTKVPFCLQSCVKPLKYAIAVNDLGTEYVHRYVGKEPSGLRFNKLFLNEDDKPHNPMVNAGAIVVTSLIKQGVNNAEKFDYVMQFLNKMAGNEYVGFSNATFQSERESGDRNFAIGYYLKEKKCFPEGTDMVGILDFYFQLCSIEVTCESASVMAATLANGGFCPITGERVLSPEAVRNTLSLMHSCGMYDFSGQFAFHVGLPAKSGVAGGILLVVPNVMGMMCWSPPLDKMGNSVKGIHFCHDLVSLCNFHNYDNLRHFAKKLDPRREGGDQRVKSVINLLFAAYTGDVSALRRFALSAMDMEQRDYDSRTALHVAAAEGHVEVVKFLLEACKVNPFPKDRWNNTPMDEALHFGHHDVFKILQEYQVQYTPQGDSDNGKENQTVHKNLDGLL
# Chain of UniProt O94782 (O94782 whole entry, looked up): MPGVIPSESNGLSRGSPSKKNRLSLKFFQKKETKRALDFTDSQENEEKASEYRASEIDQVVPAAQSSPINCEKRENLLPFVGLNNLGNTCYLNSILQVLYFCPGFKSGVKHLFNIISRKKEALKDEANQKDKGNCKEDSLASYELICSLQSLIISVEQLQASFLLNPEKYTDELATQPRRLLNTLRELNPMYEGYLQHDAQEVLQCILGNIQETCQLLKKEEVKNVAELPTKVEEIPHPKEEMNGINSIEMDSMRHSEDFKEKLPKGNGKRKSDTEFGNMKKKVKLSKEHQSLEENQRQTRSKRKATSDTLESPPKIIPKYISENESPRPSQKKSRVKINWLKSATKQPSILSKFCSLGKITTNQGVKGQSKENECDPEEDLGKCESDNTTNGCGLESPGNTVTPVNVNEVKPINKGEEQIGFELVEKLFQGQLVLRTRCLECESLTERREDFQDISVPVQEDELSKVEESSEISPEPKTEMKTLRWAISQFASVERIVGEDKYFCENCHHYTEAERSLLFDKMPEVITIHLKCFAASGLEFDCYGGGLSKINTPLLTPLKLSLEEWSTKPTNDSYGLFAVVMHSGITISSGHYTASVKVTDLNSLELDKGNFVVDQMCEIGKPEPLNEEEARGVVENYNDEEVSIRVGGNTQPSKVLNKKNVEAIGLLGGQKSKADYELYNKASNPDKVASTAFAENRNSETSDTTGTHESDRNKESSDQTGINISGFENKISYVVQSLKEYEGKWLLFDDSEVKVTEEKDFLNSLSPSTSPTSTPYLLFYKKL
# Chain of UniProt P08482 (P08482 whole entry, looked up): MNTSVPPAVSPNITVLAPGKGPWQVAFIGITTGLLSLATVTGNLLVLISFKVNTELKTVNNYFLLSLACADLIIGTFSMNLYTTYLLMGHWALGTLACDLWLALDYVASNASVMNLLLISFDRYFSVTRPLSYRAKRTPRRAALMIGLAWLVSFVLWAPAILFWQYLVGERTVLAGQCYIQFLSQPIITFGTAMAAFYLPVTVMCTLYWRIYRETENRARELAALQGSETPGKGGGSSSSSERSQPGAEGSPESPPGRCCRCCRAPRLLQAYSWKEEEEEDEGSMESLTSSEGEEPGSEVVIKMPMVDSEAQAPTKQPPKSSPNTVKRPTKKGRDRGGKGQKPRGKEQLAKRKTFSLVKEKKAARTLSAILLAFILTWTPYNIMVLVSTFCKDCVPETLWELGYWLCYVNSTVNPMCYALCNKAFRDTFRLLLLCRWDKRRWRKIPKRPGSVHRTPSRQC
# Chain of UniProt P21728 (P21728 whole entry, looked up): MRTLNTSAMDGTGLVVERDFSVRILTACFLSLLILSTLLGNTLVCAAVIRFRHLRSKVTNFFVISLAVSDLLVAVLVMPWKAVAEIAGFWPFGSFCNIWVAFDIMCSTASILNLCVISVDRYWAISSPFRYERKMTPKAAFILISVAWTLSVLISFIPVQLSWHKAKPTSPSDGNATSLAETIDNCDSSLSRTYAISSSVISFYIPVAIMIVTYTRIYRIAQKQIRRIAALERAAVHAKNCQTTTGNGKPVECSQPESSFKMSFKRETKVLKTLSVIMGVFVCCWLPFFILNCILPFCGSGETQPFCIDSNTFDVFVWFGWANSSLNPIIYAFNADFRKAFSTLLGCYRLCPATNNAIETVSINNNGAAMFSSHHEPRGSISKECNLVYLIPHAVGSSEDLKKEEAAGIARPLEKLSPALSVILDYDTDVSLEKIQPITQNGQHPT
smiles,measurement,setting,value
Fc1ccc(C(OCCCc2cnc[nH]2)c2ccc(F)cc2)cc1,"activity change, negative = inhibition",[1]; at 38 µM (top of the series),inconclusive: 28.1% [inhibitor]
same,Potency,[2],"inconclusive: 25.1 µM [inhibitor, single point]"
same,Potency,[3],active: 5.01 µM
same,Potency,[4],active: 7.94 µM
same,"activity change, negative = inhibition",[5],inconclusive: 2.37%
same,Potency,[6],"inconclusive: 39.8 µM [inhibitor, partial curve]"
same,Potency,[7],active: 6.57 µM
same,Potency,[8],"inconclusive: 63.1 µM [inhibitor, partial curve, poor fit]"
same,Potency,[9],"inconclusive: 6.31 µM [inhibitor, single point]"
Cc1ccc(S(=O)(=O)NC(=O)NN2CCCCCC2)cc1,Potency,[2],inactive
same,"activity change, negative = inhibition",[5],inconclusive: 1.47%
same,Potency,[10],inactive
same,Potency,[11],inactive
same,Potency,[6],inactive
same,Potency,[12],inactive
same,Potency,[13],active: 10 µM
CN1CCCC1CCOC(C)(c1ccccc1)c1ccc(Cl)cc1 (stereo not drawn),Potency,[12],"inconclusive: 26.1 µM [falling, partial curve, poor fit]"
same,Potency,[7],active: 10.4 µM
same,Potency,[9],"inconclusive: 1.12 µM [inhibitor, full curve]"
Cn1ncc(S(=O)(=O)Cc2ccccc2)c(Br)c1=O,Potency,[12],"inconclusive: 26.1 µM [falling, single point]"
same,Potency,[14],active: 11.7 µM
CCCCCCCCCCCCCCCCCC(=O)NCC(COP(=O)([O-])OCC[N+](C)(C)C)OCC (stereo not drawn),Potency,[15],"inconclusive: 11.2 µM [inhibitor, single point]"
same,Potency,[6],"inconclusive: 11.2 µM [inhibitor, full curve]"
same,Potency,[12],"inconclusive: 18.5 µM [falling, single point]"
same,Potency,[16],active: 12.6 µM
same,Potency,[17],"inconclusive: 20.6 µM [activator, single point]"
same,Potency,[8],"inconclusive: 29.9 µM [inhibitor, partial curve]"
same,Potency,[13],"inconclusive: 10 µM [inhibitor, single point]"
same,max response,[9],inactive: 4.32%
same,Potency,[14],"inconclusive: 26.1 µM [inhibitor, single point]"
O=c1[nH]c2cc([N+](=O)[O-])c([N+](=O)[O-])cc2[nH]c1=O,Potency,[18],"inconclusive: 15.8 µM [activator, full curve, poor fit]"
same,Potency,[5],inactive
same,Potency,[15],"inconclusive: 10 µM [inhibitor, partial curve]"
same,Potency,[7],"inconclusive: 10.4 µM [inhibitor, single point]"
Cn1c(=O)c2c(nc(/C=C/c3cccc(Cl)c3)n2C)n(C)c1=O,Potency,[19],"inconclusive: 10 µM [inhibitor, single point]"
same,Potency,[12],inactive
same,Potency,[8],"inconclusive: 112 µM [inhibitor, partial curve, poor fit]"
CC(C)C[C@H](NC(=O)C1OC1C(=O)O)C(=O)NCCCCN=C(N)N (stereo partly drawn),"activity change, negative = inhibition",[5],inconclusive: -1.4%
same,Potency,[11],active: 2.51 µM
same,Potency,[7],active: 5.86 µM
C#CCN1C(C)=C(C(=O)OC)C(c2cccc([N+](=O)[O-])c2)C(C(=O)OCC)=C1C (stereo not drawn),Potency,[6],"inconclusive: 14.1 µM [inhibitor, partial curve]"
same,Potency,[8],"inconclusive: 35.5 µM [inhibitor, partial curve, poor fit]"
same,Potency,[9],"inconclusive: 5.62 µM [inhibitor, single point]"
same,Potency,[14],"inconclusive: 20.7 µM [inhibitor, single point]"
CNc1cc(NS(=O)(=O)c2ccc(N)cc2)nc(NC)n1,Potency,[18],"inconclusive: 39.8 µM [activator, partial curve, poor fit]"
same,Potency,[4],"inconclusive: 25.1 µM [inhibitor, partial curve, poor fit]"
same,Potency,[15],inactive
same,Potency,[14],inactive
COc1ccccc1CNCCCCCCNCCCCCCCCNCCCCCCNCc1ccccc1OC,"activity change, negative = inhibition",[1]; at 38 µM (top of the series),inconclusive: -70.3% [inhibitor]
same,Potency,[2],"inconclusive: 25.1 µM [inhibitor, single point]"
same,"activity change, negative = inhibition",[5],inconclusive: -0.226%
same,Potency,[19],active: 4.47 µM
same,Potency,[7],active: 2.94 µM
same,Potency,[14],"inconclusive: 0.0826 µM [inhibitor, full curve, poor fit]"
CN(C)CCC(c1ccc(Br)cc1)c1ccccn1 (stereo not drawn),"activity change, negative = inhibition",[1]; at 17.2 µM (top of the series),active: -90.1%
same,"activity change, negative = inhibition",[5],inconclusive: 0.455%
same,Potency,[10],"inconclusive: 1.26 µM [inhibitor, full curve]"
same,Potency,[19],"inconclusive: 1.58 µM [inhibitor, full curve]"
same,Potency,[13],"inconclusive: 0.501 µM [inhibitor, partial curve, poor fit]"
same,Potency,[14],"inconclusive: 18.5 µM [inhibitor, partial curve, poor fit]"
CC1(C)CCC=[N+]1[O-],Potency,[4],active: 11.2 µM
same,Potency,[10],inactive
Cc1cc(NC(=O)Nc2ccc3c(ccn3C)c2)sn1,Potency,[18],"inconclusive: 63.1 nM [activator, single point] and inconclusive: 20 µM [inhibitor, partial curve, poor fit]"
same,Potency,[2],active: 1.58 µM
same,Potency,[4],"inconclusive: 15.8 µM [inhibitor, partial curve, poor fit]"
same,Potency,[7],"inconclusive: 8.28 µM [activator, partial curve]"
same,Potency,[16],"inconclusive: 14.1 µM [inhibitor, partial curve]"
same,Potency,[17],"inconclusive: 10.3 µM [activator, partial curve]"
